Data taken from publication PMC4336329 (PLoS ONE, 2015).
Hit rate of the full screen: of about 310,000 compounds, about 14,000 (4.5%) showed an effect of 50% or more. Effects have a minus sign here. The list shows a part of the results.

Biological target: human ether-à-go-go-related gene (hERG) potassium channel (human, UniProt Q12809)
Experiment: primary screen, population patch clamp on CHO cells stably expressing hERG
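Also: peak tail current of the secondary pulse compared with the same well before compound.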

human ether-à-go-go-related gene (hERG) potassium channel, sequence (Q12809 whole entry, looked up): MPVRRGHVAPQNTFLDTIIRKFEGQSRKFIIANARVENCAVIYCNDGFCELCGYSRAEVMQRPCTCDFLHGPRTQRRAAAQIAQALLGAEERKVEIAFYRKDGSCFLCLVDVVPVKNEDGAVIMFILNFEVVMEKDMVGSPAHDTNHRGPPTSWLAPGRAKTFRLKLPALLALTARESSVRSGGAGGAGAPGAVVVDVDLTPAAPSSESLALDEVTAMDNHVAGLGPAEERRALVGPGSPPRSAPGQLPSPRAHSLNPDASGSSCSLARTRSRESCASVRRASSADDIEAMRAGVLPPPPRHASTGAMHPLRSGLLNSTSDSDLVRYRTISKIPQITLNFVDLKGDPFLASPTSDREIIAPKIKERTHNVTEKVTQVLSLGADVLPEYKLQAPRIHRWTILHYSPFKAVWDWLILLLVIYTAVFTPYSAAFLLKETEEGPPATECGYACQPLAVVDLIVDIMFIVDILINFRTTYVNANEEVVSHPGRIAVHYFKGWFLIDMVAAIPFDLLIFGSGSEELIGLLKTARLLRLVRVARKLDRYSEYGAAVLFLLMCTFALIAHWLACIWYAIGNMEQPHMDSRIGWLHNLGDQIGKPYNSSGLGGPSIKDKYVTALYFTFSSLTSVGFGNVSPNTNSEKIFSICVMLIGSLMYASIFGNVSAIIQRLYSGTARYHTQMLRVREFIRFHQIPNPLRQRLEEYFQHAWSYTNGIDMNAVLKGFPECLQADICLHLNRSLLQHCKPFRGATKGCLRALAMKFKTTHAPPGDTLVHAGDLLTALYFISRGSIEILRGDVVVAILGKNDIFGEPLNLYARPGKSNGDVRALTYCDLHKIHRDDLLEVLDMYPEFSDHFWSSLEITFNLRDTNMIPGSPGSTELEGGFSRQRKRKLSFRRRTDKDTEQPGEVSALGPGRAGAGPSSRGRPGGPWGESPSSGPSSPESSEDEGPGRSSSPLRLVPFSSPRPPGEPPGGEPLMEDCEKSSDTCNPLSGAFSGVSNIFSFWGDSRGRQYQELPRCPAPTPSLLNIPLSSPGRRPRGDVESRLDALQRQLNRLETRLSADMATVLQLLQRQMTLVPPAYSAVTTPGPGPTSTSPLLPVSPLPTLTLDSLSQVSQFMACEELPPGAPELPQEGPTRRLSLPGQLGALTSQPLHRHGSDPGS

| Compound | hERG current change (%, negative = inhibition) at 10uM |
| --- | --- |
| CC(C)C(C)NC(=O)CN1C(=O)NC(C)(c2ccc3ccccc3c2)C1=O (centres unmarked) | 10.3% |
| CCCCCSc1nnc(N)s1 | 10.7% |
| CCCC1=Nc2cc(C(=O)N3CCC(C(N)=O)CC3)ccc2Sc2ccccc21 | 4.75% |
| COc1ccc(C2C(C#N)=C(N)N(c3sc4c(c3C#N)CCCC4)C3=C2C(=O)CC(C)(C)C3)cc1 (centres unmarked) | -2.99% |
| COc1nc2c(c(-c3cc(Br)cs3)c1C#N)Cc1ccccc1-2 | 22.5% |
| Cc1ccc(C)c2[nH]c(=O)c(CN(Cc3cccnc3)C(=S)NCc3ccco3)cc12 | -61.1% |
| CN(Cc1c(F)cccc1Cl)C(=O)CNC(=O)c1sc2ccccc2c1Cl | 3.12% |
| O=C(COC(=O)C1CC(O)CN1S(=O)(=O)c1ccc(Cl)cc1)c1cccc(Cl)c1 (centres unmarked) | 2.97% |
| COc1ccc(/C=C/C(=O)N/C(=C\c2ccco2)C(=O)NCCc2nc3ccccc3[nH]2)cc1 | -72.7% |
| O=C(CC1C(=O)NCCN1Cc1ccc(-c2ccccc2)cc1)NCCCn1ccnc1 (centres unmarked) | 14% |
| COc1ccc(/C=N/Nc2nc(-c3ccc(Cl)cc3)cc(C(F)(F)F)n2)cc1OC | 2.99% |
| COC(=O)C1=C(c2ccc(S(C)(=O)=O)cc2)C[C@@H]2CC[C@H]1N2C(=O)N1CCOCC1 | 9.27% |
| CC(C)(C)N1C(=O)[C@H]2[C@@H](c3ccc(Br)cc3)N3C(=O)N(c4cccc(F)c4)C(=O)[C@@]3(C)[C@H]2C1=O | 8.15% |
| CC(OC(=O)c1ccccc1N1C(=O)C2C3CCC(C3)C2C1=O)C(=O)c1ccccc1 (centres unmarked) | 7.12% |
| Cc1ccc(CONC(=O)c2ccc(Cl)cc2)cc1 | -1.6% |
| CCCn1c(N)c(C(=O)CSc2nc3ncc(Cl)cc3[nH]2)c(=O)[nH]c1=O | 9.39% |
| COc1cc(CCC(=O)N2CCN(c3ccccc3)CC2)cc(OC)c1OC | -58.5% |
| C#CCOCCOCCOCCNc1nc(N2CCOCC2)nc(N2CCN(C(=O)[C@H](CCC(=O)O)n3cc(C(N)Cc4ccc(O)cc4)nn3)CC2)n1.Cl (some centres unmarked) | -13.9% |
| COc1ccc(OC)c(/C=N/NC(=O)c2cc[n+](CC(=O)c3ccccc3)cc2)c1.[Br-] | -5.33% |
| O=C1/C(=C/c2ccc(F)cc2)SC(=S)N1NS(=O)(=O)c1ccccc1 | 9.56% |
| CCNS(=O)(=O)c1ccc(NC(=O)c2cc(C(F)(F)F)nn2C)cc1 | -16.6% |
| O=C(O)CCCCCNCc1c(Cl)cccc1Cl | 2.91% |

| Compound | hERG current change (%, negative = inhibition) at 10uM |
| --- | --- |
| COC(=O)C1=C(C)N(C)C(=O)NC1c1ccc(O)c(Cl)c1 (centres unmarked) | -19.2% |
| CCCn1c(SCC(=O)NCCc2ccccc2)nnc1-c1ccccn1 | -38% |
| CCOC(=O)C1(CC2CCCCO2)CCN(C(=O)Nc2ccccc2)CC1 (centres unmarked) | 12% |
| Cc1ccccc1OC(=O)Cn1c(C(F)(F)F)nc2ccccc21 | 3.95% |
| O=C(Cn1ncc(N2CCCC2)c(Br)c1=O)c1ccc(Cl)cc1 | -23.1% |
| CCCc1cc(=O)[nH]c(Nc2ccc(O)cc2)n1 | 1.84% |
| O=C(Nn1cnnc1)c1ccc(Cl)c([N+](=O)[O-])c1 | 1.32% |
| Cc1cccc(NS(=O)(=O)c2cc(C(=O)N3CCN(C)CC3)ccc2C)c1 | -12.1% |
| CCCCc1ccc(NC(=O)NCc2cccnc2)cc1 | -41.4% |
| CN(CC(=O)O)S(=O)(=O)c1ccc2[nH]c(=O)c(=O)[nH]c2c1 | -0.277% |
| O=C(Nc1ccc2oc(-c3ccccc3)nc2c1)C1CCCO1 (centres unmarked) | 4.31% |
| O=C(NCC(=O)N(Cc1ccco1)C(C(=O)NC1CCCC1)c1ccncc1)c1cccs1 (centres unmarked) | -0.29% |
| COc1ccc(NC(=O)Cc2nnc(N)s2)cc1 | 18.5% |
| Cc1nn(C(C)C(=O)NCC2CCCO2)c(=O)c2cc3occc3n12 (centres unmarked) | -9.93% |
| Nc1ncnc(N2CCc3ccccc32)c1[N+](=O)[O-] | 6.2% |
| COc1cccc(C(=O)OC(C)C(=O)NCC2CCCCC2)c1 (centres unmarked) | -29.3% |
| COc1ccc(-c2cc(C(=O)N3CC4(C)CC3CC(C)(C)C4)no2)cc1 (centres unmarked) | 15.8% |
| CC(=O)CSc1nc2c(c(=O)[nH]c(=O)n2C)n1Cc1cccc(Br)c1 | -24.6% |
| COC(=O)c1c(C)nc(C)c(C(=O)OC)c1-c1ccsc1 | 0.663% |
| COc1ccc(Cc2noc(COc3ccc(Cl)cc3)n2)cc1 | 5.95% |
| O=[N+]([O-])c1ccc(-c2csc3[n+]2CCS3)cc1.[Br-] | -11.9% |
| N#CCc1ccc(NC(=O)c2ccccc2C(=O)Nc2ccc(CC#N)cc2)cc1 | -14.8% |

| Compound | hERG current change (%, negative = inhibition) at 10uM |
| --- | --- |
| N/C(=N\OC(=O)c1ccc(F)cc1)c1nonc1N | 5.87% |
| COc1ccc(CNC(=O)/C=C/C(=O)O)cc1 | -19% |
| COc1ccc(CNS(=O)(=O)c2ccc3c(c2)NC(=O)C(C)S3)cc1 (centres unmarked) | 2.33% |
| Cc1cccc(C)c1NC(=O)CSc1nnc(NC(=O)c2ccccc2C(=O)O)s1 | 9.74% |
| NS(=O)(=O)c1ccc(CCNC(=O)c2cc(-c3ccccn3)nc3ccc(Br)cc23)cc1 | 9.39% |
| CC(=O)c1c(C)[nH]c(C(=O)NC(C)c2ccccc2)c1C (centres unmarked) | 0.331% |
| CCc1ccc(CN2CCC(Oc3ccc(C(=O)NCc4ccccn4)cc3)CC2)o1 | -12.9% |
| CC(=O)c1ccn(S(=O)(=O)c2ccc(Cl)cc2)c1 | 6.57% |
| COc1ccccc1NC(=O)CCSc1nc(C)cs1 | 12.8% |
| CCCN1CCN(C(=O)c2ccccc2-c2nc3ccccc3s2)CC1 | -31.5% |
| CCCCC(=O)NS(=O)(=O)c1ccc(NS(C)(=O)=O)cc1 | 5.49% |
| CC(=O)c1ccc(Nc2cnn(C34CC5CC(CC(CC(=O)O)(C5)C3)C4)c(=O)c2Cl)cc1 | 18.8% |
| COc1ccccc1OCCn1cc(C=O)c2ccccc21 | 8.32% |
| CCc1ccc(S(=O)(=O)Nc2ccc(-c3ccc4nnc(C)n4n3)cc2)s1 | 2.31% |
| O=C(Nc1ccc2c(c1)OCO2)N1CCN(c2ncc(C(F)(F)F)cc2Cl)CC1 | -2.57% |
| C/C(CC1(O)/C(=N/O)CCc2nonc21)=N\O (centres unmarked) | 18.3% |
| COc1cccc2cc(C(C)N(CCCN3CCOCC3)C(=S)Nc3cc(C)ccc3C)oc12 (centres unmarked) | 1.47% |
| O=S(=O)(c1ccc(Cl)nc1)N1CCN(Cc2ccc3c(c2)OCO3)CC1 | -23.9% |
| c1ccc(C(c2ccccc2)c2noc(CN3CCN(CC4CC4)CC3)n2)cc1 | -61.6% |
| COc1cc(CNc2ccc3[nH]c(=O)[nH]c3c2)cc(Cl)c1OCC(=O)NC(C)(C)C | 4.56% |
| O=C(Nc1ccc(Cl)cn1)c1cccc(F)c1 | -5.06% |
| COc1ccnc(N=CNOCc2ccc(F)cc2Cl)c1C#N | 15.9% |

| Compound | hERG current change (%, negative = inhibition) at 10uM |
| --- | --- |
| Cc1noc(C)c1CSc1nnc2scc(-c3ccccc3)n12 | -35.6% |
| N#Cc1c(C(F)(F)F)cc(-c2ccccc2Cl)[nH]c1=O | 8.55% |
| O=C(O)c1cc2nc(C3CC3)cc(C(F)(F)F)n2n1 | 12.9% |
| Cc1ccc(N2CC(C(=O)NCc3ccc4c(c3)OCO4)CC2=O)cc1C (centres unmarked) | -15.6% |
| O=C1c2cccnc2C(=O)N1Cc1ccc(S(=O)(=O)NCc2ccco2)cc1 | 13.4% |
| O=C(Oc1ccc(Br)cc1)C1CC(=O)N(c2ccc(F)cc2)C1 (centres unmarked) | -10.5% |
| Cc1cccc(C(=O)N[C@H](C(=O)Nc2ccc(S(=O)(=O)NC3=NCCCCC3)cc2)C(C)C)c1 | 7.47% |
| CCOC(=O)c1ccc(S(=O)(=O)N2CCN(CC(O)COc3ccc(C#N)cc3)CC2)cc1.O=C(O)C(=O)O (centres unmarked) | -63.2% |
| CC(=O)C(Sc1nc(N(C)C)nc(N(C)C)n1)C(=O)Nc1ccccc1 (centres unmarked) | -3.04% |
| Cc1cc(-c2ccc(/C=N/n3cnnc3)o2)ccc1Cl | -9% |
| CC(=O)c1cnn(-c2ccc(Cl)c(Cl)c2Cl)c1C | -8.45% |
| COc1ccc(C(=O)Nc2ccc(-c3n[nH]c(=S)o3)cc2)cc1 | 20.8% |
| Cc1occc1C(=O)Nc1cccc(C(=O)NCc2ccccc2)c1 | -30.3% |
| COC(=O)CSc1nc2sccc2c(=O)n1-c1ccccc1 | 5.26% |
| O=C(c1cncs1)N1CCCC(CNS(=O)(=O)c2cccs2)C1 (centres unmarked) | 18.3% |
| Cc1cc(C)nc(SCc2nnc(SCC(=O)Nc3cc(C(F)(F)F)ccc3Cl)o2)n1 | -29.9% |
| NC(=O)c1ccccc1NC(=O)Nc1cccc(Cl)c1Cl | 8.98% |
| Cc1ccc(C2C(C#N)=C(N)Oc3n[nH]c(C)c32)cc1 (centres unmarked) | 7.32% |
| CC1CCN(Cc2nc3c(c(=O)n(C)c(=O)n3C)n2CCCc2ccccc2)CC1 | -8.01% |
| O=C(Nc1ccc(-c2cccc(F)c2)cc1)C1CCCN(Cc2ccccn2)C1 (centres unmarked) | -42.3% |
